The full ranking holds about 110,000 compounds; the median of “z-score” is about -0.1, and the highest 2% start at about 2. The list shows a part of the results. Active and inactive are the calls of the source.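 Rule for the calls: active = z-score in the third read window above 3 or below -3; inactive = the rest.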

This assay has as its target Metabotropic glutamate receptor 8 (Rattus norvegicus) (UniProt P70579). Briefly: rat mGluR8 modulators via GIRK flux, primary screen, cell-based, thallium flux, HTS (AID 488969). The conditions noted are these: HEK293 rat mGluR8, GIRK (G protein-gated inwardly rectifying potassium channel) thallium flux, FluoZin2; at 10 µM; stronger effect = higher value; submaximal glutamate (EC20) added with thallium.
UniProt P70579, sequence (P70579 whole entry, looked up): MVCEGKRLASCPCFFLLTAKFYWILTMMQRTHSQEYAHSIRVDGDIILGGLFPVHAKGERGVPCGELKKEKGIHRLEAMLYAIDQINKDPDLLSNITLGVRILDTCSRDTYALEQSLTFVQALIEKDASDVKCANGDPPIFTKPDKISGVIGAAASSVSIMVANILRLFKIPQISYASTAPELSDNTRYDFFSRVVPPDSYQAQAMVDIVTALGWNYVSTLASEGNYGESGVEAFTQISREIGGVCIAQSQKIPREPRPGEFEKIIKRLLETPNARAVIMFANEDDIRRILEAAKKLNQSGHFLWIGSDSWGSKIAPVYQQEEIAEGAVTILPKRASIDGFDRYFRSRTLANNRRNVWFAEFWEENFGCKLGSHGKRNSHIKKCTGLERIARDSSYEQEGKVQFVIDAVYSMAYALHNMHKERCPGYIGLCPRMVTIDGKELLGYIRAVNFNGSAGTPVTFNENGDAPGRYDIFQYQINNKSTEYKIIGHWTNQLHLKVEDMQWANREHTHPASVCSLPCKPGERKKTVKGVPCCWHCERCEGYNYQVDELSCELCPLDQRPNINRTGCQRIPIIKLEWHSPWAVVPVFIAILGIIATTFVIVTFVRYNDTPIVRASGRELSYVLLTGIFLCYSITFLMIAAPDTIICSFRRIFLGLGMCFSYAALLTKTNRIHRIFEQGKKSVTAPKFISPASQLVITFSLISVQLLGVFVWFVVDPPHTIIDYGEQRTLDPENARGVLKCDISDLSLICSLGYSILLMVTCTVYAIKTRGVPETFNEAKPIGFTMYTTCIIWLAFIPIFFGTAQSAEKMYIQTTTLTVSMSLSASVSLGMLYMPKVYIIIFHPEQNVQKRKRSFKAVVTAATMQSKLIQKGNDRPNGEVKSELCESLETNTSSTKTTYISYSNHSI
With `CC(C)c1nc2ccccc2n1CCC(=O)O`, the z-score was -0.0842.

Take `CCC(Sc1nc(C)cc(=O)[nH]1)C(=O)Nc1nc2c(s1)CCCC2` (stereo not drawn): the z-score was -1.56.

On to `CN(Cc1ccccc1)C(=O)c1oc(=O)c2ccccc2c1-c1ccccc1`, for which the z-score is -0.543.

In turn, `Cc1ccc(S(=O)(=O)NCCNC(=O)C2CCCNC2=O)cc1` (stereo not drawn) showed a z-score of 2.41.

With `C/C=C/C(=O)OCC(=O)Nc1nc2ccc(C)cc2s1`, the z-score was 0.196.

Take `CC(=O)NC(Cc1ccc(C(C)C)cc1)C(=O)NC1CCN(c2nc(C)cc(C)n2)CC1` (stereo not drawn): the z-score was 0.108.

Consider `COc1ccc(CCNC(=O)CSc2nc(-c3ccc(OC)c(OC)c3)ccc2C#N)cc1`, for which the z-score is -0.18.

In the case of `CC(=O)Nc1ccc(NC(=O)c2ccccc2S(=O)(=O)c2ccccc2[N+](=O)[O-])cc1`, the z-score came to 1.36.

With `COCCNC(=O)CN(C(=O)Cn1nnc2ccccc21)c1ccc(F)c(Cl)c1`, the z-score is 0.102.

`Clc1ccc(-c2nnc(SCc3cn4ccsc4n3)n2CC2CCCO2)cc1` (stereo not drawn) came in with a z-score of -0.00653.

`CCc1ccccc1N1C(=O)c2cccc3c(N4CCOCC4)c([N+](=O)[O-])cc(c23)C1=O` registered a z-score of -0.147.

`CN1CCN(CCC(=O)N2c3ccccc3Sc3ccc(C(F)(F)F)cc32)CC1` gave a z-score of 1.11.

For `COCCOc1nc2ccccc2nc1C`, the z-score was -0.251.

The compound `Cc1cccc2cc(=O)[nH]c(C)c12` had a z-score of 0.0682.

In turn, `Cc1ccc(C2=NNC(C(O)C(O)C(O)C(C)O)S2)cc1` (stereo not drawn) came in with a z-score of -0.0357.

In turn, `O=C(COc1ccc(S(=O)(=O)N2CCCC2)cc1Cl)NCc1ccc2c(c1)OCO2` registered a z-score of 0.364.

The compound `Cc1ccc[n+](CC(=O)Nc2cc(C(F)(F)F)ccc2Cl)c1` registered a z-score of 0.0194.

In turn, `O=C1c2oc3ccccc3c(=O)c2C(c2cccnc2)N1Cc1ccco1` (stereo not drawn) registered a z-score of 0.788.

`CN(C)S(=O)(=O)c1ccc(NC(=O)N2CCN(c3ccccc3)CC2)cc1` returned a z-score of 0.322.

The compound `O=C(COc1cc(Cl)c(Cl)cc1Cl)NC(=O)Nc1ccc2c(c1)OCCO2` yielded a z-score of -0.118.

For the compound `CSc1nc2nccc(-c3ccc(-c4ccccc4)cc3)n2n1`, the z-score is -0.5.

Consider `CCOC(=O)c1sc(N)nc1C(C)C`, for which the z-score is -4.56e-05.

`Cc1ccc(C)c(NC(=S)NNC(=O)c2csc3c2CCCC3)c1`: the z-score was active: 7.26.

`CCOC(=O)N1CCN(C(=O)NC2CCCCC2)CC1` yielded a z-score of 0.782.

`CC(=O)Oc1ccc(N(C(C)=O)S(=O)(=O)c2cccs2)cc1` yielded a z-score of -0.202.

Take `CCOC(=O)N1CCC(N2Cc3cccc(C(=O)Nc4ccc(OC)c(OC)c4)c3C2=O)CC1`: the z-score was -0.721.

In turn, `Cc1cc(OC(=O)c2ccc(Cl)cc2)cc(=O)n1C` showed a z-score of -0.527.

Turning to `CCCn1cnc2cc(NCc3cccc(OC)c3)ccc21`, the z-score is -0.0355.

For `COc1ccccc1-c1nnc2sc(COc3ccc(Cl)cc3)nn12`, the z-score is -0.124.

As for `CCOC(=O)c1c(C)[nH]c2c1cc(O)c1ccccc12`, the z-score is active: 4.58.

Compound `CC1(C)Oc2ccc3ccc(=O)oc3c2-c2cn[nH]c21` returned a z-score of -0.305.

In turn, `CC(C)Cn1c(N)c(C(=O)CSc2nc3ccccc3n2C)c(=O)n(C)c1=O` returned a z-score of -0.037.

In turn, `COCCN(C(=S)Nc1cc(C)cc(C)c1)C(C)c1cccnc1` (stereo not drawn) gave a z-score of -0.354.

`Cn1c2ccc(F)cc2c2ncn(CCN3CCOCC3)c(=O)c21` registered a z-score of -0.252.

For `CC(C)OC(=O)C1C2C=CC3(CN(C(C)c4ccc(Br)cc4)C(=O)C13)O2` (stereo not drawn), the z-score turned out to be 0.295.

Compound `COc1ccc(CCNC(=O)C2CCN(S(=O)(=O)c3c(C)noc3C)CC2)cc1OC` displayed a z-score of 0.824.

`C=CCc1cc(C=O)cc(OC)c1OCc1c(Cl)cccc1Cl` showed a z-score of -0.298.

Consider `COc1ccc(/C=N/NC(=O)c2ccc3c(c2)OCCO3)cc1[N+](=O)[O-]`, for which the z-score is -0.012.

Take `Cc1nn(-c2ccc(F)cc2)c2nc(N)c(C#N)c(-c3cccs3)c12`: the z-score came to 0.056.

`C=CCN(C(=O)CSc1nc2[nH]ncc2c(=O)n1-c1ccccc1OC)c1ccccc1` had a z-score of -0.457.

The compound `O=C(NCCSc1c[nH]c2ccccc12)c1ccc(Br)o1` had a z-score of -0.00412.

`O=C(NC1=NCCS1)c1ccc(Cl)c(S(=O)(=O)N2CCCCC2)c1` registered a z-score of 0.118.

Take `COc1ccc2ccccc2c1C1CC(=O)N2CN(Cc3ccco3)CSC2=C1C#N` (stereo not drawn): the z-score was -0.0668.

As for `O=C(COc1ccc(S(=O)(=O)N2CCc3ccccc32)cc1Cl)NCc1ccccn1`, the z-score worked out at 0.627.

The compound `CC(C)Oc1ccc(CNCC2(O)CCOC(C)(C)C2)cc1` (stereo not drawn) had a z-score of 0.977.

For `COc1ccccc1/C=N/NC1=NCCCCC1`, the z-score is -0.105.

In the case of `COc1cccc(C(=O)/C=C/Nc2ccc(S(=O)(=O)Nc3nc(C)cc(C)n3)cc2)c1`, the z-score is -0.0552.

With `Cc1ccc(SCc2cn3cccnc3n2)cc1`, the z-score came out at 0.687.

The compound `COC(=O)c1ccc(NC(=O)Cc2ccc(C)cc2)cc1` gave a z-score of -0.433.

`Oc1c(Br)cc(Cl)cc1C=Nc1ccccc1Br` yielded a z-score of -0.827.

In turn, `Cc1cc(C)c(COc2ccc(/C=N/n3c(C)n[nH]c3=S)cc2)c(C)c1` registered a z-score of 0.242.

Take `Cc1ccc(-n2nc(C)c3c(C)c(CCC(=O)NC(C)c4ccccc4)c(C)nc32)cc1` (stereo not drawn): the z-score was -0.13.

As for `O=C1CC(N2CCC(c3nc4ccccc4o3)CC2)C(=O)N1c1ccc(Cl)cc1` (stereo not drawn), the z-score amounted to 0.0454.

For `Cn1cc(S(=O)(=O)N2CCN(Cc3ccccc3)CC2)c(=O)n(C)c1=O`, the z-score amounted to 0.108.

The compound `O=C(Nc1ccnc(-c2cccnc2)n1)c1ccccc1Cl` gave a z-score of -0.0168.

For the compound `CCN(CC)C(=O)c1cc(-c2ccc(Br)cc2)on1`, the z-score was 1.48.

As for `Cc1cccc(N(CC(N)=O)C2SC(=O)NC2=O)c1` (stereo not drawn), the z-score was -0.0487.

Regarding `COc1ccc(CCn2nnnc2C(CC(C)C)N2CCC(C(N)=O)CC2)cc1OC` (stereo not drawn), the z-score was -0.0829.

In turn, `O=C(OCc1ccccc1Cl)c1cccnc1Cl` gave a z-score of -0.157.

For `COc1ccc(N2CCN(C(=O)CN(c3ccc(Br)cc3)S(C)(=O)=O)CC2)cc1`, the z-score is 0.0268.

The compound `CSc1ccc(CNc2ccc(C)c(C)c2)cc1` registered a z-score of -0.183.

For the compound `COc1ccc(F)cc1CN1CCN(c2cc(C)nc3c4c(C)cc(C)nc4nn23)CC1`, the z-score was -0.542.

The compound `COc1cccc(C(=O)N(CN2CCCC2=O)c2ccccc2OC)c1` had a z-score of 0.2.

As for `O=C(Nc1ccccc1)c1cccc(N2CCCC2=O)c1`, the z-score is -0.342.

Compound `Cc1cc(C)n(-c2cc(N3CCN(S(=O)(=O)c4ccc(C)c(C)c4)CC3)ccc2[N+](=O)[O-])n1` had a z-score of -0.0583.

The compound `Cc1cc(C)nc(N(C#N)Cc2ccccc2Cl)n1` came in with a z-score of -0.117.

With `CCSc1nsc(SCC)c1C(N)=O`, the z-score was -0.0132.

As to `Cn1nccc1/C=C(/C#N)S(=O)(=O)c1ccccc1`, the z-score was -0.0393.

Compound `Oc1ccc2[nH]ccc2c1` showed a z-score of -0.478.

Take `CCNc1nc(NCC)nc(SCCOC(=O)c2ccccc2)n1`: the z-score was -0.297.

With `CCC(=O)Nc1cc(C)c(NC(=O)C23CC4CC(CC(C4)C2)C3)cn1`, the z-score was found to be 0.0544.

Compound `O=C1N/C(=N\N=C\c2cccnc2)SC1Cc1ccc(SC(F)F)cc1` (stereo not drawn) registered a z-score of -0.21.

Regarding `O=C(c1cccc([N+](=O)[O-])c1)c1cc2ccccc2o1`, the z-score is -0.0823.

In turn, `O=C(NC1CCc2ccccc21)C12CN(Cc3ccccc3)CC1C(c1cccc([N+](=O)[O-])c1)=NO2` (stereo not drawn) displayed a z-score of -0.093.

`CCOC(=O)C(NC(=O)c1ccc(F)cc1)(Nc1sc2c(c1C(N)=O)CCC2)C(F)(F)F` (stereo not drawn): the z-score is -0.109.

In turn, `CCn1c(SCC(N)=O)nnc1-c1ccc(S(=O)(=O)N2CCN(C)CC2)cc1` returned a z-score of -0.217.

The compound `O=C(Oc1ccc2c(=O)c(Cl)coc2c1)c1cccnc1` showed a z-score of 0.575.

Regarding `O=C(CN(c1ccc(F)cc1)S(=O)(=O)c1ccc2c(c1)OCCO2)NCc1ccncc1`, the z-score is 0.0449.

With `COc1ccccc1NC(=O)Cc1csc(NC(=S)Nc2ccccc2)n1`, the z-score was -0.494.

As to `c1ccc(-n2c(SCC3CCCCO3)nnc2-c2cnccn2)cc1` (stereo not drawn), the z-score is -0.259.

Turning to `CC(C)(NC(=O)N1CCOCC1)c1cccc(C(C)(C)NC(=O)N2CCOCC2)c1`, the z-score is -0.126.

Regarding `Clc1ccc(CSc2ncccn2)cc1`, the z-score was -0.0589.

As to `CC(C)COC(=O)n1c(SCC(=O)N(C)C)nc2ccccc21`, the z-score was -0.139.

The compound `Cc1ccccc1NC(=O)c1cccc(Cn2cc(Br)c([N+](=O)[O-])n2)c1` had a z-score of -0.0624.

`Cc1ccc2cccc(S(=O)(=O)N3CCN(c4ccccc4F)CC3)c2n1`: the z-score is 1.15.

For the compound `CCOC(=O)N1CCN(C(=O)C2CCN(S(=O)(=O)CC)CC2)CC1`, the z-score is 0.328.

`COc1ccc(CN(CC(=O)NCC2CCCO2)C(=O)CCC(=O)Nc2cc(C)on2)cc1` (stereo not drawn) had a z-score of -0.352.

For `CCC1(C(=O)c2ccccc2)C(c2ccc([N+](=O)[O-])cc2)C1(C(=O)OC)C(=O)OC` (stereo not drawn), the z-score came to 0.155.

Compound `CCCCOc1ccc(C2C(C(=O)c3ccc(C)o3)=C(O)C(=O)N2CC2CCCO2)cc1` (stereo not drawn) yielded a z-score of 0.358.

`COP(=O)(OC)c1nc(-c2cccc3ccccc23)oc1N1CCOCC1` had a z-score of -0.168.

The compound `CCn1c(SCC(=O)N/N=C/c2ccc(C)o2)nnc1-c1ccc(C(C)(C)C)cc1` gave a z-score of -0.445.

As to `COC(=O)c1ccc(CSc2nnc(CNC(=O)COc3ccc(Cl)cc3)o2)o1`, the z-score is -0.282.

Consider `COc1ccc(OC)c(C(=O)CSc2nccc(-c3ccc(Br)cc3)n2)c1`, for which the z-score is -0.268.

`CC12CN(C(=O)c3ccco3)CC(c3ccccc3)(CN(C(=O)c3ccco3)C1)C2=O` had a z-score of 0.0373.

Take `COc1ccc(NC2=NCC(=O)N2c2ccccc2)c(OC)c1`: the z-score is -0.3.

In turn, `CCCC(CCC)C(=O)NCCN1CCOCC1` returned a z-score of -0.871.

Take `CCOc1ccc(NC(=O)C2CCCN(C(=O)Nc3ccccc3)C2)cc1` (stereo not drawn): the z-score is -0.687.

`CCCCCCn1cnc2c(oc3nc4c(cc32)CCCC4)c1=O` yielded a z-score of 0.165.

The compound `O=c1[nH]cnc2scc(-c3ccccc3)c12` came in with a z-score of 0.259.

The compound `COc1ccc(N2C(=O)CSC23C(=O)N2c4c(cccc43)C(C)=CC2(C)C)cc1` (stereo not drawn) had a z-score of -0.0488.

With `COc1ccccc1-n1c(C)nc2cc(C(=O)O)ccc21`, the z-score is -0.184.

As to `COc1ccc(-n2c(O)c(Cc3ccccc3)c(=O)n3nc(-c4ccccc4)c(=O)cc23)cc1`, the z-score was -0.421.

`CS(=O)(=O)N(CC(=O)NCCSCc1c(F)cccc1Cl)c1ccc2c(c1)OCO2`: the z-score turned out to be 0.461.

On to `Fc1cccc(Cl)c1CSc1nnc(CN2CCOCC2)n1-c1ccccc1`, for which the z-score is -0.0527.

The compound `O=C(CN(CCc1ccccc1)C(=O)CN1C(=O)COc2ccccc21)NCc1ccco1` registered a z-score of 1.07.

`CCOc1ccc(-n2c(SCc3nc(-c4ccc(C)cc4)no3)nnc2-c2ccncc2)cc1` displayed a z-score of -0.127.

As for `COC(=O)c1c(C(C)=O)cnc2ccc(Br)cc12`, the z-score is -0.305.

On to `COc1ccccc1-n1cnnc1SCC(=O)c1cc(C)n(Cc2cccs2)c1C`, for which the z-score is -0.41.

For the origin of these results see PubChem BioAssay AID488969 (Vanderbilt High Throughput Screening Facility, 2010).
